The other results are listed elsewhere or left out. Cleavage of a single-stranded DNA pool by Rep nickase domains was read by sequencing (1 h at 37 °C, 3 µM enzyme); the outer parts of the 90-letter strands are left off. Uncut reads are compared with the no-enzyme pool on a log2 scale; more negative means more cut, near 0 not cut, and no call is made. The scaling is to total reads; where an enzyme cuts many sequences, the uncut ones exceed 0.
How the values were obtained:
Experiment in all cases: uncleaved DNA left, log2 of reads against the no-enzyme library (log2 ratio); higher = less cleavage (more negative = more Rep cleavage of the k-mer); sequences stand for … in CTCGTCCG…ACCGGAGA
[1] = system: T1, Rep nickase domain of Muscovy duck circovirus
T1 sequence (Rep 1-111, printed without the tag): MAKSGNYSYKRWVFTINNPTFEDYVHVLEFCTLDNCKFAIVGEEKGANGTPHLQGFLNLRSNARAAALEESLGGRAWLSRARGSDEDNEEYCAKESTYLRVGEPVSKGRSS
Experimental: (§1)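 A pool of 90-nt single-stranded DNAs with seven random bases just before the constant AC of the nick site (name = the seven bases) was cut by 3 µM recombinant His6-SUMO-tagged Rep nickase domain (300 nM DNA, 50 mM HEPES pH 8.0, 50 mM NaCl, 1 mM MnCl2, 1 h, 37 °C, three replicates). Uncut DNA was amplified and sequenced.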

[2] = system: T2, Rep nickase domain of banana bunchy top virus
T2 sequence (Rep 1-94, printed without the tag): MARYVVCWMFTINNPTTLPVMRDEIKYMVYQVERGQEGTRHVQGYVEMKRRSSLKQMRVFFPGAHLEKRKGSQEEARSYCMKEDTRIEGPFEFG
Experimental: as §1

[3] = system: T3, Rep nickase domain of cabbage leaf curl virus
T3 sequence (Rep 1-116, printed without the tag): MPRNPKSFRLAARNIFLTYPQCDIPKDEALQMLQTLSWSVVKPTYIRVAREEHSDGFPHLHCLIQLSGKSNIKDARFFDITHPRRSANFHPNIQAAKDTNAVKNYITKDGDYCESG
Experimental: as §1

[4] = system: T4, Rep nickase domain of chickpea chlorotic dwarf virus
T4 sequence (Rep 1-124, printed without the tag): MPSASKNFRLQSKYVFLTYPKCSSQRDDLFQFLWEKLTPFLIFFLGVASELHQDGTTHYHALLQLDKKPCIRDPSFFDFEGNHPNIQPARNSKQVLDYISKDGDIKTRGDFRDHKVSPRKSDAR
Experimental: as §1

[5] = system: T5, Rep nickase domain of faba bean necrotic yellows virus
T5 sequence (Rep 1-98, printed without the tag): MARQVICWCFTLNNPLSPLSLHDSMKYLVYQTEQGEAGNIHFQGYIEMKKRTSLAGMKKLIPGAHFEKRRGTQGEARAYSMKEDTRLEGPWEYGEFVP
Experimental: as §1

[6] = system: T6, Rep nickase domain of maize striate mosaic virus
T6 sequence (Rep 1-117, printed without the tag): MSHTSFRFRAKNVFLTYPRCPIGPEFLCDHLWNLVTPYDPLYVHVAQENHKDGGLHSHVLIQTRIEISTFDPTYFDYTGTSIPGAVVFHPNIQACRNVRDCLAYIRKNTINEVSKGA
Experimental: as §1

[7] = system: T7, Rep nickase domain of porcine circovirus 2
T7 sequence (Rep 2-116, printed without the tag): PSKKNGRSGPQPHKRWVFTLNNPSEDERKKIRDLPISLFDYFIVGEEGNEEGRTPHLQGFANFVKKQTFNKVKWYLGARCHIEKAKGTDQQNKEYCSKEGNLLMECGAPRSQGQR
Experimental: as §1

[8] = system: T8, Rep nickase domain of tomato golden mosaic virus
T8 sequence (Rep 1-124, printed without the tag): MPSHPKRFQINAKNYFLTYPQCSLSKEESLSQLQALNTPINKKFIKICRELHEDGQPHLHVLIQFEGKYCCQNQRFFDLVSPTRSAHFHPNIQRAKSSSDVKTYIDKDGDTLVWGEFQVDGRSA
Experimental: as §1

[9] = system: T9, Rep nickase domain of tomato yellow leaf curl virus
T9 sequence (Rep 1-136, printed without the tag): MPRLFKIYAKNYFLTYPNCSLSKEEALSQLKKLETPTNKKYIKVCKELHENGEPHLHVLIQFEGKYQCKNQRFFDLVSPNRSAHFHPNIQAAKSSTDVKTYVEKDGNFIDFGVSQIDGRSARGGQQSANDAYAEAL
Experimental: as §1

[10] = system: T10, Rep nickase domain of wheat dwarf virus
T10 sequence (Rep 1-137, printed without the tag): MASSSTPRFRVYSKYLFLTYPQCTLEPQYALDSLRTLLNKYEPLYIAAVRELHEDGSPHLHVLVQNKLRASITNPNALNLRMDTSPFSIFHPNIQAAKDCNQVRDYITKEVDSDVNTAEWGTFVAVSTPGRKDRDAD
Experimental: as §1

Row | Sequence | uncleaved DNA left (log2) [1] | uncleaved DNA left (log2) [2] | uncleaved DNA left (log2) [3] | uncleaved DNA left (log2) [4] | uncleaved DNA left (log2) [5] | uncleaved DNA left (log2) [6] | uncleaved DNA left (log2) [7] | uncleaved DNA left (log2) [8] | uncleaved DNA left (log2) [9] | uncleaved DNA left (log2) [10]
1 | GAGACAG | 0.154 | 0.257 | 0.815 | 2.14 | 0.104 | 2.22 | 0.258 | 0.12 | 0.158 | 0.244
2 | TTCAAGT | 0.0739 | 0.0858 | 0.277 | -0.188 | 0.0829 | -0.479 | -0.0582 | -0.0193 | 0.0933 | -0.0134
3 | CAGGTGC | -0.0493 | 0.0249 | -0.597 | -0.471 | 0.0708 | -0.934 | -0.0375 | -0.0387 | -0.0503 | -0.0695
4 | GGGTTTG | 0.111 | 0.0973 | 0.737 | 1.48 | 0.0851 | 1.86 | 0.228 | 0.112 | 0.127 | 0.0667
5 | GAGATAC | 0.0129 | -0.00462 | 0.229 | 0.7 | -0.0641 | 0.37 | -0.0272 | 0.0751 | -0.0303 | 0.127
6 | GGTGAAG | -0.0338 | 0.066 | 0.0144 | 0.41 | -0.0466 | 0.0937 | 0.0888 | 0.137 | 0.0568 | -0.023
7 | ATGCACG | -0.0524 | -0.1 | -0.862 | -0.367 | -0.0722 | -1.27 | 0.0528 | -0.132 | -0.11 | -0.209
8 | CCAATAT | -0.077 | -0.0121 | -0.00317 | -0.949 | -0.24 | -0.764 | -0.0731 | -0.0748 | -0.0267 | -0.0394
9 | CCGGCGC | 0.0449 | -0.208 | -0.597 | -0.456 | -0.0655 | -0.396 | 0.0636 | -0.104 | -0.105 | -0.232
10 | GAGCAAG | 0.0703 | 0.0948 | -0.26 | -0.0881 | 0.101 | -0.432 | 0.0743 | 0.187 | 0.179 | -0.0109
11 | GACGATT | 0.197 | -0.0607 | 0.402 | -1.32 | 0.0896 | 1.39 | -0.36 | -0.0442 | 0.00806 | 0.161
12 | GGCTCTA | 0.124 | 0.162 | 0.412 | 0.866 | -0.0436 | 1.61 | 0.0713 | -0.00112 | 0.139 | 0.137
13 | TACCTTG | -0.131 | -0.0727 | -0.45 | -2.11 | -0.0915 | -1.09 | -0.56 | -0.167 | -0.122 | -0.149
14 | GGTATAC | 0.0972 | 0.0721 | 0.419 | 1.15 | -0.0819 | 1.85 | 0.183 | 0.0378 | 0.175 | 0.13
15 | CGCCCTG | -0.165 | -0.155 | -0.191 | 0.382 | -0.0857 | 1.13 | -0.215 | -0.184 | -0.173 | -0.161
16 | AGGCGGA | 0.118 | 0.162 | 0.0925 | 0.19 | 0.0845 | -0.204 | 0.146 | 0.193 | 0.0531 | 0.0217
17 | CGTACTG | -0.0676 | -0.111 | -0.00215 | 0.603 | -0.078 | 1.63 | 0.072 | -0.165 | -0.0473 | 0.0573
18 | ACGACTA | 0.0903 | 0.0536 | -0.0382 | 0.292 | 0.0746 | 1.06 | 0.0298 | 0.123 | -0.117 | 0.0339
19 | GCCTGCT | -0.462 | -0.0566 | -0.393 | -0.458 | -0.0218 | -0.767 | -1.75 | 0.0455 | -0.105 | -0.199
20 | TTTGACT | -0.0255 | 0.0121 | 0.00611 | -1.99 | -0.0179 | -0.11 | -0.19 | -0.121 | 0.0789 | -0.0416
21 | ACGAAGG | -0.0719 | -0.0401 | -0.525 | -0.257 | 0.0394 | -0.933 | 0.124 | 0.039 | 0.0508 | -0.0988
22 | CGCAAGG | 0.0583 | 0.0716 | 0.181 | 0.957 | 0.0165 | 0.64 | 0.1 | 0.106 | -0.0133 | 0.0881
23 | ACATCAT | 0.0648 | 0.115 | 0.0318 | -0.835 | 0.136 | -0.497 | -0.0593 | 0.125 | -0.0682 | 0.0708
24 | CTTGGCA | 0.032 | 0.112 | -0.328 | -0.72 | 0.114 | -0.833 | 0.096 | 0.0222 | 0.131 | 0.034
25 | ACCACCA | -0.213 | -0.208 | -0.288 | -1.37 | -0.102 | -0.848 | -0.269 | -0.115 | -0.184 | -0.115
26 | GCTAAAT | 0.0214 | -0.0672 | 0.0714 | 0.299 | -0.0806 | 0.191 | -0.144 | -0.113 | 0.00657 | 0.0545
27 | CGTTGAT | -0.0854 | -0.00112 | -0.0322 | 0.0754 | 0.0866 | -0.0614 | -1.14 | 0.0603 | 0.0453 | -0.00242
28 | GAGCAGG | -0.00832 | 0.0733 | -0.000498 | 0.586 | -0.045 | 0.882 | 0.159 | 0.193 | -0.0245 | -0.0804
29 | CGGAAGT | 0.0565 | -0.0104 | 0.134 | 0.29 | 0.0303 | -0.0819 | 0.0109 | -0.0783 | 0.0119 | 0.101
